# Test results published in PubChem BioAssay AID686979 (National Center for Advancing Translational Sciences (NCATS), 2013).
# Out of some 420,000 compounds screened, about 50,000 (12%) were called active. The shares of active, inactive and inconclusive entries below differ from those in the screen. Calls come from the whole dose curve; as a rule, active = well fitted inhibition curve with a large enough effect; inconclusive = small, poorly fitted or top-dose-only effect; inactive = flat fitted curve, though single readings scatter. Potencies of inconclusive entries are left out as doubtful fits.
# Experiment: qHTS for Inhibitors of human tyrosyl-DNA phosphodiesterase 1 (TDP1): qHTS in cells in presence of CPT; note: nearly all actives have a fitted effect of over 55% in size
# Conditions: chicken DT40 Tdp1-/-;hTDP1 cells + 20 nM CPT, ATP luminescence, 48 h; series mostly up to 46.2 µM
# Method in brief: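 Chicken DT40 Tdp1-/- cells complemented with human TDP1, 400 cells/well, exposed to compounds plus 20 nM camptothecin for at least 48 h at 37 C; viability read as ATP content by CellTiter-Glo luminescence.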
# Potency is the fitted concentration of half-maximal effect; tags give direction and shape of the fitted curve.
row,Structure (SMILES),Potency
1,O=C(CCNC(=O)c1ccccc1Cl)Nc1nc2ccc(F)cc2s1,"inconclusive [inhibitor, single point]"
2,COc1ccc(-n2nc(C(=O)NCC(=O)N3CCN(c4ccccc4)CC3)c3ccccc3c2=O)c(OC)c1,"inconclusive [inhibitor, single point]"
3,COC(=O)COc1ccc(/C=C2\SC(=O)N(CC(=O)Nc3ccccc3F)C2=O)cc1,inactive
4,CCOC(=O)C1CCCN(C(=O)c2cc3nc(-c4ccc5c(c4)OCO5)cc(C(F)(F)F)n3n2)C1 (stereo not given),"inconclusive [inhibitor, single point]"
5,Nc1nc(SCC(=O)N2CCN(S(=O)(=O)c3ccc(Cl)cc3)CC2)n[nH]1,"inconclusive [inhibitor, single point]"
6,CCc1noc(C)c1C(=O)Nc1nc(-c2cc(OC)ccc2OC)cs1,"inconclusive [inhibitor, single point]"
7,Cc1cc(C)cc(OCC(=O)Nc2nc3c(s2)CC(C(C)(C)C)CC3)c1 (stereo not given),active: 18.4 µM
8,COc1ccccc1C/C(N)=N/OC(=O)c1cccc([N+](=O)[O-])c1,"inconclusive [inhibitor, partial curve, poor fit]"
9,Cc1ccc(CNC(=O)CC2(CC3=NS(=O)(=O)c4ccccc4N3)CCCC2)cc1,"inconclusive [inhibitor, single point]"
10,COc1ccc(C(=O)N2CCC[C@@]3(CCN(c4ccccc4)C3)C2)cc1,"inconclusive [inhibitor, single point]"
11,COC(=O)c1cc(CNC(=O)c2cnsn2)cc(NC(=O)c2ccccc2OC)c1,"inconclusive [inhibitor, single point]"
12,Cc1c(Cl)cccc1NC(=O)c1cccc(NC(=O)N2CCSc3ncccc32)c1,"inconclusive [inhibitor, single point]"
13,COc1ccc(-c2nc3cc(C)ccn3c2NCc2ccc3c(c2)OCO3)cc1,"inconclusive [inhibitor, single point]"
14,CCCCn1c2ccccc2c2nnc(SCCN3CCCCC3)nc21,"inconclusive [inhibitor, single point]"
15,CC(NC(=O)c1ccc2c(c1)CCN2S(C)(=O)=O)c1ccccc1 (stereo not given),"inconclusive [inhibitor, partial curve]"
16,Cc1ccc(Cn2c(C)c(C(=O)NCC(C)C)sc2=O)cc1,"inconclusive [inhibitor, single point]"
17,O=c1[nH][nH]c2c1[C@H](c1ccccc1)O[C@H](C1CCCCC1)C2,inactive
18,O=C(N/N=C/c1cccc(NC(=O)c2ccc(Cl)cc2)c1)c1ccc(O)cc1,"inconclusive [inhibitor, single point]"
19,FC(F)(F)c1ccc(N=Cc2sc(N3CCOCC3)nc2-c2ccccc2)cc1,inactive
20,CCCC#CCN1CCN(C23CC4CC(CC(C4)C2)C3)CC1,inactive
21,O=C1OCCN1C(=O)[C@H]1[C@H](c2ccc(Cl)cc2)C(c2cccc(Cl)c2)=NN1c1ccccc1,inactive
22,NC(=O)c1cc[n+](Cc2ccc([N+](=O)[O-])cc2)cc1,inactive
23,CCOc1ccc(NC(=O)CSC2=Nc3ccccc3C3=NC(CCC(=O)NCc4ccccc4)C(=O)N23)cc1 (stereo not given),"inconclusive [inhibitor, single point]"
24,Cc1cc(N/N=C/c2c(O)ccc3ccccc23)nc(-c2ccccc2O)n1,active: 8.2 µM

row,Structure (SMILES),Potency
1,Cc1cc(NC(=O)Nc2ccccc2F)ccc1Br,"inconclusive [inhibitor, single point]"
2,Cc1ccccc1OCc1nnc(SCc2cc(=O)[nH]c3ccccc23)n1-c1ccccc1,"inconclusive [inhibitor, partial curve, poor fit]"
3,Cc1ccc(CNC(=O)c2ccc3c(c2)nc(C)n3-c2cccc(F)c2)cc1,"inconclusive [inhibitor, single point]"
4,CCNc1nc(NC(C)C)nc(SCCOC(=O)c2ccccc2)n1,active: 14.6 µM
5,O=C(COc1ccc(Br)cc1)N(Cc1ccccc1)c1ccccn1,inactive
6,COc1ccc(/C=N\NC(=O)c2ccccc2Br)cc1COc1c(F)c(F)cc(F)c1F,"inconclusive [inhibitor, single point]"
7,Cc1cccc(Cn2c(=O)c3c(nc4n3CCCN4Cc3ccccc3)n(C)c2=O)c1,"inconclusive [inhibitor, partial curve]"
8,COCCNC(=O)C1CC(c2cccc(OC)c2)=NO1 (stereo not given),inactive
9,O=C(CCSc1ccccc1)NNC(=O)c1ccccc1F,inactive
10,Cn1cccc1C(=O)N1CCC2(CC1)CN(c1cccc(-c3ccccc3)c1)C2,active: 18.4 µM
11,COc1ccc2ccccc2c1CN1CCN(C(=O)c2ccccc2)CC1,"inconclusive [inhibitor, partial curve]"
12,COc1nc(Nc2ccc([N+](=O)[O-])cc2)nc(NC(C)C)n1,"inconclusive [inhibitor, single point]"
13,CC(C)N1CCN(c2ccc(OCC3COC(Cn4cncn4)(c4ccc(Cl)cc4Cl)O3)cc2)CC1 (stereo not given),"inconclusive [inhibitor, single point]"
14,COc1ccccc1N1CCN(C(=O)c2cccc(S(=O)(=O)N3CCCCCC3)c2)CC1,"inconclusive [inhibitor, single point]"
15,Cc1cc(C(F)(F)F)n2nc(-c3ccc(Br)cc3)cc2n1,"inconclusive [inhibitor, single point]"
16,COCc1cccc(-c2csc(C(NC(C)=O)c3cccc(F)c3)n2)c1 (stereo not given),inactive
17,O=C(Nc1cccc(/C=C/c2ccccn2)c1)c1ccc(-n2cncn2)cc1,"inconclusive [inhibitor, single point]"
18,O=C(CCC(=O)Nc1ccccc1)NNC(=O)COc1ccccc1,inactive
19,Cc1ccc(S(=O)(=O)NC(N)=NCCc2ccc(Cl)cc2)cc1C,inactive
20,CCCCOc1ccc(-c2nn(-c3ccccc3)cc2C2NC(=O)NC(C)=C2C(=O)OCC)cc1 (stereo not given),"inconclusive [inhibitor, single point]"
21,FC(F)C(F)(F)Oc1cccc(Nc2nccn3c(-c4cccc5cccnc45)cnc23)c1,active: 25.9 µM
22,O=C(Nc1ccc(Br)cc1)c1ccc(F)c(S(=O)(=O)NCc2cccs2)c1,active: 14.6 µM
23,COc1ccc2[nH]cc(CCNc3ncncc3-c3ccccc3OC)c2c1,inactive
24,O=C(CCn1cnc2ccccc21)N=Nc1c(O)[nH]c2ccccc12,"inconclusive [inhibitor, single point]"

row,Structure (SMILES),Potency
1,CCN(c1ccccc1)S(=O)(=O)c1cc(C(=O)Nc2ccc(F)c(F)c2)ccc1F,active: 23.1 µM
2,CCOC(=O)[C@]12CCC=C1N(Cc1ccco1)C(=O)[C@H](CC(=O)N1CCCCC1)C2,inactive
3,CN(C)CCCN(C(=O)COc1ccccc1)c1nc2ccc(Cl)cc2s1,"inconclusive [inhibitor, single point]"
4,Cc1cc2oc(C(=O)Nc3ccc(S(N)(=O)=O)cc3)cc(=O)c2cc1C,inactive
5,CCOC(=O)c1c(COc2ccccc2)oc2ccc(O)cc12,inactive
6,O=C(NCCc1ccccc1)c1cnc2sc(N3CCCCCC3)nn2c1=O,"inconclusive [inhibitor, partial curve]"
7,O=C(c1cc2ccccc2oc1=O)N1CCN(c2ccc(Cl)cc2)CC1,"inconclusive [inhibitor, partial curve]"
8,Cc1cc(C)cc(C(=O)N2CCN=C2c2ccccc2)c1,"inconclusive [inhibitor, single point]"
9,Nc1nc(O)c2ncn([C@H]3CC[C@@H](CO)O3)c2n1,"inconclusive [inhibitor, single point]"
10,COc1ccc(OCC(=O)NCc2ccc3c(c2)CCN3C(=O)c2ccccc2)cc1,active: 14.6 µM
11,O=C(O)CCN1C(=O)/C(=C2\C(=O)N(Cc3ccc(F)cc3)c3ccccc32)SC1=S,active: 16.4 µM
12,COc1cc(/C=N/NC(=O)COc2c(C)cc([N+](=O)[O-])cc2C)ccc1OC(=O)c1ccccc1Br,"inconclusive [inhibitor, single point]"
13,COc1cccc(CN2CC(C(=O)NCCOc3ccccc3)CCC2=O)c1 (stereo not given),inactive
14,COc1ccc(CN2CCN(CCSc3ccc(C)cc3)CC2)c(OC)c1OC,"inconclusive [inhibitor, single point]"
15,O=C(CSc1nnnn1-c1ccccc1)Nc1ncc2c(n1)CC(c1ccccc1)CC2=O (stereo not given),active: 15.8 µM
16,Cc1cc(N(C)/N=C/c2ccccc2O)nc(-c2ccccc2O)n1,active: 5.8 µM
17,C[C@H](CO)N1C[C@H](C)[C@@H](CN(C)C(=O)CN2CCOCC2)Oc2ncc(-c3cncnc3)cc2C1=O,inactive
18,CCc1ccc(C(=O)c2cn(CC(=O)Nc3cccc(OC)c3)c3ccc(OC)cc3c2=O)cc1,"inconclusive [inhibitor, single point]"
19,O=C(NC(=S)Nc1nc(-c2ccccc2)cs1)c1cncc(Br)c1,inactive
20,O=C(/C=C\c1ccc2c(c1)OCO2)CC1(O)C(=O)Nc2ccccc21 (stereo not given),"inconclusive [inhibitor, single point]"
21,CC1=N/C(=C\c2ccc([N+](=O)[O-])cc2)C(=O)N1c1ccc(Cl)cc1,"inconclusive [inhibitor, single point]"
22,CCCC(=O)Nc1ccc(-c2nc3ncccc3o2)cc1,inactive
